Some of the results follow.
How the values were obtained:
Assay in all cases: glycan array binding signal (z-score within array); higher = stronger binding
Conditions in all cases: glycan notation: IUPAC condensed, linker removed
Fuc(a1-2)Gal = target: Fuc(a1-2)Gal
How it was run: (§1)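 Columns mapping to the same glycan were averaged after glycan names were converted to IUPAC-condensed notation. The data come from 3228 arrays in the Consortium for Functional Glycomics database, limited to those with an available protein sequence. Binding is reported as a within-array Z-score averaged across arrays of one protein sequence and across linkers.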

Fuc(a1-2)Gal(b1-3)GalNAc = target: Fuc(a1-2)Gal(b1-3)GalNAc
How it was run: as §1

[1] = target: Fuc(a1-2)Gal(b1-3)GalNAc(b1-3)Gal
How it was run: as §1

[2] = target: Fuc(a1-2)Gal(b1-3)GalNAc(b1-3)Gal(a1-4)Gal(b1-4)Glc
How it was run: as §1

[3] = target: Fuc(a1-2)Gal(b1-3)GalNAc(b1-4)[Neu5Ac(a2-3)]Gal(b1-4)Glc
How it was run: as §1

Fuc(a1-2)Gal(b1-3)GlcNAc = target: Fuc(a1-2)Gal(b1-3)GlcNAc
How it was run: as §1

[4] = target: Fuc(a1-2)Gal(b1-3)GlcNAc(b1-2)Man(a1-3)[Fuc(a1-2)Gal(b1-3)GlcNAc(b1-2)Man(a1-6)]Man(b1-4)GlcNAc(b1-4)GlcNAc
How it was run: as §1

[5] = target: Fuc(a1-2)Gal(b1-3)GlcNAc(b1-3)Gal(b1-4)Glc
How it was run: as §1

[6] = target: Fuc(a1-2)Gal(b1-3)GlcNAc(b1-3)[Gal(b1-4)[Fuc(a1-3)]GlcNAc(b1-6)]Gal(b1-4)Glc
How it was run: as §1

[7] = target: Fuc(a1-2)Gal(b1-3)[Fuc(a1-4)]GlcNAc
How it was run: as §1

[8] = target: Fuc(a1-2)Gal(b1-3)[Fuc(a1-4)]GlcNAc(b1-2)Man(a1-3)[Fuc(a1-2)Gal(b1-3)[Fuc(a1-4)]GlcNAc(b1-2)Man(a1-6)]Man(b1-4)GlcNAc(b1-4)GlcNAc
How it was run: as §1

Fuc(a1-2)Gal(b1-4)Glc = target: Fuc(a1-2)Gal(b1-4)Glc
How it was run: as §1

Fuc(a1-2)Gal(b1-4)Glc6S = target: Fuc(a1-2)Gal(b1-4)Glc6S
How it was run: as §1

Fuc(a1-2)Gal(b1-4)GlcNAc = target: Fuc(a1-2)Gal(b1-4)GlcNAc
How it was run: as §1

[9] = target: Fuc(a1-2)Gal(b1-4)GlcNAc(b1-2)Man(a1-3)[Fuc(a1-2)Gal(b1-4)GlcNAc(b1-2)Man(a1-6)]Man(b1-4)GlcNAc(b1-4)GlcNAc
How it was run: as §1

[10] = target: Fuc(a1-2)Gal(b1-4)GlcNAc(b1-3)Gal(b1-4)GlcNAc
How it was run: as §1

[11] = target: Fuc(a1-2)Gal(b1-4)GlcNAc(b1-3)Gal(b1-4)GlcNAc(b1-3)Gal(b1-4)GlcNAc
How it was run: as §1

[12] = target: Fuc(a1-2)Gal(b1-4)GlcNAc6S
How it was run: as §1

[13] = target: Fuc(a1-2)Gal(b1-4)[Fuc(a1-3)]GlcNAc
How it was run: as §1

[14] = target: Fuc(a1-2)Gal(b1-4)[Fuc(a1-3)]GlcNAc(b1-2)Man(a1-3)[Fuc(a1-2)Gal(b1-4)[Fuc(a1-3)]GlcNAc(b1-2)Man(a1-6)]Man(b1-4)GlcNAc(b1-4)GlcNAc
How it was run: as §1

[15] = target: Fuc(a1-2)Gal(b1-4)[Fuc(a1-3)]GlcNAc(b1-3)Gal(b1-4)[Fuc(a1-3)]GlcNAc
How it was run: as §1

[16] = target: Fuc(a1-2)Gal(b1-4)[Fuc(a1-3)]GlcNAc(b1-3)Gal(b1-4)[Fuc(a1-3)]GlcNAc(b1-3)Gal(b1-4)[Fuc(a1-3)]GlcNAc
How it was run: as §1

Fuc(a1-2)Gal6S(b1-4)Glc = target: Fuc(a1-2)Gal6S(b1-4)Glc
How it was run: as §1

[17] = target: Fuc(a1-2)Gal6S(b1-4)Glc6S
How it was run: as §1

[18] = target: Fuc(a1-2)Gal6S(b1-4)GlcNAc
How it was run: as §1

Fuc(a1-2)[Gal(a1-3)]Gal = target: Fuc(a1-2)[Gal(a1-3)]Gal
How it was run: as §1

[19] = target: Fuc(a1-2)[Gal(a1-3)]Gal(b1-3)GlcNAc
How it was run: as §1

[20] = target: Fuc(a1-2)[Gal(a1-3)]Gal(b1-3)GlcNAc(b1-2)Man(a1-3)[Fuc(a1-2)[Gal(a1-3)]Gal(b1-3)GlcNAc(b1-2)Man(a1-6)]Man(b1-4)GlcNAc(b1-4)GlcNAc
How it was run: as §1

[21] = target: Fuc(a1-2)[Gal(a1-3)]Gal(b1-4)Glc
How it was run: as §1

[22] = target: Fuc(a1-2)[Gal(a1-3)]Gal(b1-4)GlcNAc
How it was run: as §1

B1: DETC sTCR (Mus musculus) (protein)
chain: LDVYLEPVAKTFTVVAGDPASFYCTVTGGDMKNYHMSWYKKNGTNALFLVYKLNSNSTDGGKSNLKGKINISKNQFILDIQKATMKDAGTYYCGSDIGGSSWDTRQMFFGTGIELFVEPKSQPPAKPSVFIMKNGTNVACLVKDFYPKEVTISLRSSKKIVEFDPAIVISPSGKYSAVKLGQYGDSNSVTCSVQHNSETVHSTDFEPYANSFNNEKLPEPENDTQISEPCSSADLVPRGSTTAPSAQLKKKLQALKKKNAQLKWKLQALKKKLAQHHHHHHDSWISQDQLSFTRRPNKTVHISCKLSGVPLHNTIVHWYQLKEGEPLRRIFYGSVKTYKQDKSHSRLEIDEKDDGTFYLIINNVVTSDEATYYCACWDSSGFHKVFAEGTKLIVIPSDKRLDADISPKPTIFLPSVAETNLHKTGTYLCLLEKFFPDVIRVYWKEKDGNTILDSQEGDTLKTNDTYMKFSWLTVPERAMGKEHRCIVKHENNKGGADQEIFFPSIKKVAVSTKPTTCSSADLVPRGSTTAPSAQLEKELQALEKENAQLEWELQALEKELAQLNDIFEAQKIEW
In the case of B1, the “glycan array binding signal (z-score)” value (Fuc(a1-2)Gal) is reported as -0.167, the “glycan array binding signal (z-score)” value (Fuc(a1-2)Gal(b1-3)GalNAc) is reported as -0.499 and the “glycan array binding signal (z-score)” value [1] is reported as 0.476. For the same binder, the “glycan array binding signal (z-score)” value [2] was -0.528, the “glycan array binding signal (z-score)” value [3] was -0.465 and the “glycan array binding signal (z-score)” value (Fuc(a1-2)Gal(b1-3)GlcNAc) was -0.497. For the same binder, the “glycan array binding signal (z-score)” value [4] was -0.618, the “glycan array binding signal (z-score)” value [5] was -0.112 and the “glycan array binding signal (z-score)” value [6] was -0.448. For the same binder, the “glycan array binding signal (z-score)” value [7] was 0.111, the “glycan array binding signal (z-score)” value [8] was 0.545 and the “glycan array binding signal (z-score)” value (Fuc(a1-2)Gal(b1-4)Glc) was -0.047. The “glycan array binding signal (z-score)” value (Fuc(a1-2)Gal(b1-4)Glc6S) was 0.321, the “glycan array binding signal (z-score)” value (Fuc(a1-2)Gal(b1-4)GlcNAc) was -0.268 and the “glycan array binding signal (z-score)” value [9] was -0.199. For the same binder, the “glycan array binding signal (z-score)” value [10] was -0.612, the “glycan array binding signal (z-score)” value [11] was -0.402 and the “glycan array binding signal (z-score)” value [12] was 0.066. The “glycan array binding signal (z-score)” value [13] was 0.056, the “glycan array binding signal (z-score)” value [14] was -0.281 and the “glycan array binding signal (z-score)” value [15] was -0.194. The “glycan array binding signal (z-score)” value [16] was -0.49, the “glycan array binding signal (z-score)” value (Fuc(a1-2)Gal6S(b1-4)Glc) was -0.576 and the “glycan array binding signal (z-score)” value [17] was 0.416. For the same binder, the “glycan array binding signal (z-score)” value [18] was 2.96, the “glycan array binding signal (z-score)” value (Fuc(a1-2)[Gal(a1-3)]Gal) was 0.343 and the “glycan array binding signal (z-score)” value [19] was -0.572. The “glycan array binding signal (z-score)” value [20] was -0.205, the “glycan array binding signal (z-score)” value [21] was -0.655 and the “glycan array binding signal (z-score)” value [22] was -0.488.

Source: the supplement of paper PMC8728848
